Measured values published in PubChem BioAssay AID720709 (National Center for Advancing Translational Sciences (NCATS), 2013).
Among all 360,000 compounds or so, about 520 (0.14%) were called active. Inconclusive means that the source gave no clear call. Such entries were picked first, then a sample of the others. Calls follow the shape of the dose curve; as a rule, active = well fitted inhibition curve with a large enough effect; inconclusive = small, poorly fitted or top-dose-only effect; inactive = no such curve, though single readings can be large or run the other way. Potencies of inconclusive entries are left out as doubtful fits.

Target: Rap guanine nucleotide exchange factor 3 (Homo sapiens) (UniProt O95398)
Assay: qHTS for Antagonist of cAMP-regulated guanine nucleotide exchange factor 3 (EPAC1): primary screen; also: nearly all actives have a fitted effect of over 50% in size;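 as to activity change, negative = inhibition: plate controls were vehicle for no effect and positive control for full effect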
Settings: EPAC1 GEF assay, Rap1b-BODIPY-GDP exchange fluorescence; activity change, negative = inhibition: at 115 µM (top of the series)
Potency is read from the fitted curve at half-maximal effect; tags tell the direction and shape of the fitted curve.

Chain of UniProt O95398 (O95398 whole entry, looked up): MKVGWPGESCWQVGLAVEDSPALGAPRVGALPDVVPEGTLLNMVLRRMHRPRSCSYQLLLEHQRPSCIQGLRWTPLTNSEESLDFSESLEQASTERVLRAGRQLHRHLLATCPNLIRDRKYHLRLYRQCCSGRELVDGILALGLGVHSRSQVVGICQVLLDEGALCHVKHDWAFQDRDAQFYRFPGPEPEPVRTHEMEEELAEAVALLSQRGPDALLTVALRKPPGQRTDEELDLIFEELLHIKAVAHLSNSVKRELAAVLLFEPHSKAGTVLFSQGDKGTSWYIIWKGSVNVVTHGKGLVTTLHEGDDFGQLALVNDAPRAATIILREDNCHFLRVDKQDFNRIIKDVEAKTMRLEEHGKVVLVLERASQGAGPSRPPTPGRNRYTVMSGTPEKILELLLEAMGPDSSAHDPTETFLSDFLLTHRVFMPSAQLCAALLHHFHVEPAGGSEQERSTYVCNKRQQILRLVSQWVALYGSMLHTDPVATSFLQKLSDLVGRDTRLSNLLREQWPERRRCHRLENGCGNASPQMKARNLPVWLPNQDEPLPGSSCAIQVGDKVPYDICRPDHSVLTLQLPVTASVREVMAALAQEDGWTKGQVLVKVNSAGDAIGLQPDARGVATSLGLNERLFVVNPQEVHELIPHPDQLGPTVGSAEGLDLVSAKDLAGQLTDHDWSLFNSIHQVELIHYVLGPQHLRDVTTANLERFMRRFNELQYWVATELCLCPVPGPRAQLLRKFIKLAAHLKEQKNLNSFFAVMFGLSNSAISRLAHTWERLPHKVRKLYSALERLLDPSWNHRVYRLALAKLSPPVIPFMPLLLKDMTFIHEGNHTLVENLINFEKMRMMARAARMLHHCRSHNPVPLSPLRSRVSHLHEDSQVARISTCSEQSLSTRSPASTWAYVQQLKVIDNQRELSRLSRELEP

Row | SMILES | Potency | activity change, negative = inhibition
1 | COc1ccc(OC)c(NC(=O)CSc2nc3[nH]c(=O)[nH]c(=O)c3s2)c1 | inconclusive [inhibitor, single point] | –
2 | O=C(CSc1ncc(-c2ccc(F)cc2)[nH]1)N1CCCCC1 | – | inactive: 7.28%
3 | Cn1c(O)c(N=NC(=O)c2cccc(S(=O)(=O)N3CCCCC3)c2)c2ccccc21 | inconclusive [inhibitor, single point] | –
4 | COCCn1c(SCC(=O)Nc2cccc(S(N)(=O)=O)c2)nc2cc(Cl)ccc2c1=O | inconclusive [inhibitor, full curve] | –
5 | COc1cccc(N=Nc2ccc(O)c3ncccc23)c1 | inconclusive [inhibitor, single point] | –
6 | O=C(COC(=O)CNC(=O)c1ccccc1)Nc1ccc(Cl)cc1C(F)(F)F | inconclusive [inhibitor, partial curve, poor fit] | –
7 | CCCN1C(=O)/C(=N\OCC(=O)Nc2ccc(C(C)C)cc2)c2ccccc21 | inconclusive [inhibitor, partial curve] | –
8 | CCOC(=O)c1c(NC(=O)CCC(=O)N(CC)CC)sc2c1CC(C)(C)OC2 | inconclusive [inhibitor, partial curve, poor fit] | –
9 | Cc1cc(N2C(=O)C(O)=C(C(=O)c3cc4ccccc4o3)C2c2cccc(Cl)c2)no1 (stereo not drawn) | inconclusive [inhibitor, full curve, poor fit] | –
10 | O=C(N/N=C/c1ccccc1O)/C(=C/c1ccccc1)CCO | inconclusive [inhibitor, partial curve, poor fit] | –
11 | COc1ccc(N2CCN(C(=O)c3cc(C)on3)CC2)cc1 | inconclusive [inhibitor, single point] | –
12 | CCOc1ccccc1NC(=S)Nn1cnnc1 | – | inactive: -21.3%
13 | CCCCCCCCCC(=O)N[C@@H]1c2cc(OC)c(OC)cc2C[C@H]1OCc1ccccc1 | – | inactive: 10.8%
14 | COc1ccc(-c2cc(C(=O)N(C)CCc3ccc(OC)c(OC)c3)c3ccccc3n2)cc1 | inconclusive [inhibitor, partial curve] | –
15 | COc1ccc(NC(=O)CCC(=O)c2cccs2)cc1Cl | – | inactive: 16.2%
16 | CCN(CC)S(=O)(=O)c1ccc(C(=O)NNC(=O)C2CCN(S(=O)(=O)c3ccc(Cl)cc3)CC2)cc1 | inconclusive [inhibitor, full curve, poor fit] | –
17 | N[C@@H](Cc1cc(I)c(Oc2cc(I)c(O)c(I)c2)c(I)c1)C(=O)O | inconclusive [inhibitor, partial curve] | –
18 | CCCC(=O)NC(=S)Nc1ccc(S(=O)(=O)Nc2ccc(OCC)cc2)cc1 | inconclusive [inhibitor, single point] | –
19 | Nc1nn(-c2ccccc2)nc1C(=O)OCc1ccccc1 | inconclusive [inhibitor, full curve] | –
20 | CCc1ccc(C2CC(=O)N3CN(c4ccccc4)CSC3=C2C#N)cc1 (stereo not drawn) | inconclusive [inhibitor, partial curve, poor fit] | –
21 | CSC[C@H]1CN(Cc2ccccc2)C(=O)[C@@H]1CC(=O)Nc1ccccc1 | – | inactive: -3.67%
22 | O=C(CSc1nnc(-c2ccco2)o1)c1ccc[nH]1 | inconclusive [inhibitor, single point] | –

Row | SMILES | Potency | activity change, negative = inhibition
23 | CC[C@]12c3[nH]c4cc(-c5ccco5)ccc4c3CCN1C(=O)[C@@H](CC(=O)NCCC1=CCCCC1)C[C@@H]2C(=O)N1CCN(C(=O)c2ccco2)CC1 | inconclusive [inhibitor, partial curve] | –
24 | CNC(=S)NNC(=O)COc1cccc(C)c1C | inconclusive [inhibitor, full curve, poor fit] | –
25 | O=C1C(Cl)=C(NCC2CCCO2)C(=O)N1c1cccc(Cl)c1Cl (stereo not drawn) | – | inactive: -20.8%
26 | Cc1cccc(S(=O)(=O)N[C@@H]2CC[C@@H](CCNS(=O)(=O)c3ccccc3F)O[C@@H]2CO)c1 | – | inactive: 3.38%
27 | CCOC(=O)c1nnc2cc(C)nn2c1C | inconclusive [inhibitor, full curve, poor fit] | –
28 | Cc1c(Cl)cccc1NC(=O)CSc1nc(=O)n(CCCN2CCOCC2)c2c1CCC2 | inconclusive [inhibitor, single point] | –
29 | CCCCC1=NN2CCS(=O)(=O)N=C2S1 | inconclusive [inhibitor, partial curve, poor fit] | –
30 | O=C(/C=C/c1ccccc1)c1ccccc1O | inconclusive [inhibitor, single point] | –
31 | CN(C(=O)c1ccccc1Cl)C1CCCCC1 | – | inactive: 16%
32 | COc1ccc(-c2cc(C(F)(F)F)c3c(n2)sc2c(O)cc(=O)[nH]c23)c(OC)c1 | inconclusive [inhibitor, partial curve] | –
33 | O=C1C(=O)N(CC2CCCO2)C(c2ccccc2[N+](=O)[O-])/C1=C(/O)c1ccccc1 (stereo not drawn) | inconclusive [inhibitor, partial curve] | –
34 | COc1ccc(Cl)cc1NC(=O)Cn1nnc(C(=O)NCCc2ccc(OC)c(OC)c2)c1N | inconclusive [inhibitor, partial curve] | –
35 | c1ccc(-c2nc(-c3ccncc3)no2)cc1 | – | inactive: -9.48%
36 | CC(C)(C)c1cc(-c2nc(N)nc(N)n2)cc(C(C)(C)C)c1 | inconclusive [inhibitor, partial curve] | –
37 | CC1CCCN(c2nc3c(c(=O)[nH]c(=O)n3C)n2Cc2ccccc2Cl)C1 (stereo not drawn) | inconclusive [inhibitor, partial curve] | –
38 | Cc1ccc(S(=O)(=O)N2[C@H](CC(=O)c3cccs3)OC[C@@H]2C(C)C)cc1 | – | inactive: -0.972%
39 | CCOC(=O)c1c(N=CN(C)C)c2cc([N+](=O)[O-])cnc2n1C | inconclusive [inhibitor, full curve] | –
40 | NS(=O)(=O)c1ccc(CCNCc2cc(Br)ccc2OCc2ccccc2F)cc1 | inconclusive [inhibitor, full curve, poor fit] | –
41 | CCCCN(C(=O)c1ccc(-n2nc(C)cc2C)cc1)c1c(N)n(CCC)c(=O)[nH]c1=O | inconclusive [inhibitor, single point] | –
42 | O=C(c1ccc([N+](=O)[O-])cc1)N1CCSC1c1cccc(Cl)c1 (stereo not drawn) | inconclusive [inhibitor, partial curve] | –
43 | Cc1ccc(S(=O)(=O)N2[C@@H](c3ccc(Br)cc3)C(C(=O)O)=CC[C@H]2c2ccc(Cl)cc2)cc1 | inconclusive [inhibitor, partial curve] | –
